Laboratory results taken from patent US6828450B2, “Triptycene analogs” (Kansas State University Research Foundation, priority 2000, dated 2004).
Some of these results come from one statement about several compounds together. For at least one compound, name, drawing or mass did not settle the structure.

Test system: L1210 cells
Assay: DNA cleavage (intact chromatin precipitation) in L1210 cells
Format: cell-based, murine
Conditions: 7 μM, 24 h; control 5%
Experimental: FIG. 19. Comparison of the concentration-dependent effects of novel TT analogs and known DNA-damaging anticancer drugs on DNA cleavage in L1210 cells in vitro. […] After lysing the cells in HLB containing 0.2% Triton X-100, the detergent-soluble DNA fragments present in the supernatants and the intact chromatin DNA remaining in the pellets were separated by centrifugation and their radioactivity estimated by LSC. Results are expressed as [cpm in supernatant/cpm in supernatant+pellet]×100 at 24 h. For untreated controls (5.3±0.6% DNA fragmentation; striped area), the supernatant is 741±79 cpm and the pellet is 13,293±1,446 cpm.
FIG. 20. Comparison of the abilities of novel TT analogs to induce DNA cleavage in L1210 cells in vitro. Cells containing prelabeled DNA were incubated at 37° C. for 24 h in the presence or absence (control) of 7 μM concentrations of the indicated compounds. The protocol of the experiment and the determination of the results were identical to those of FIG. 12.
FIG. 22. Irreversibility of the effects of novel TT analogs and known DNA-damaging anticancer drugs on DNA cleavage in L1210 cells in vitro. Cells containing prelabeled DNA were incubated at 37° C. for various periods of time in the presence or absence (control) of 10 μM TT1 or TT2 and 1.6 μM DAU or CPT. The protocol of the experiment and the determination of the results at 24 h were identical to those of FIG. 19, except that the drugs were either maintained in the medium for the whole 24-h period of incubation (open) or removed after the first 3 (striped) and 8 h (closed). After spinning and washing the appropriate samples to remove the drugs, cells were resuspended in 0.5 ml of fresh medium to complete the 24-h period of incubation in the absence of drugs. Vehicle-treated controls were similarly spun and washed at 3 and 8 h. Bars: means±SD (n=3).
Drug-induced DNA cleavage was determined by intact chromatin precipitation, using L1210, HL-60-S, HL-60-RV and HL-60-R8 cells which were prelabeled with 1 μCi of ^3H-thymidine for 2 h at 37° C., washed with 3×1 ml of ice-cold PBS, collected by centrifugation, and resuspended in fresh FCS-containing RPMI 1640 medium at a density of about 1×10^6 cells/0.5 ml for L1210 and 0.5×10^6 cells/0.5 ml for HL cells. Except when otherwise specified, such cells containing prelabeled DNA were then exposed for 24 h to TTs and drugs known to induce DNA fragmentation. After centrifugation at 200×g for 10 min to discard the drugs and wash the cells, the intact cell pellets were lysed for 30 min in 0.5 ml of HLB, centrifuged at 12,000×g for 30 min to collect the supernatants, and resuspended in 0.5 ml of HLB. After another similar centrifugation, the radioactivities in the pooled supernatants (detergent-soluble low molecular weight DNA fragments) and the pellet (intact chromatin DNA) were determined by LSC: % DNA fragmentation=[cpm in supernatant/cpm in supernatant+pellet]×100. Before being counted in 6 ml of Bio-Safe NA, the intact pelleted chromatin was incubated for 2 h at 60° C. in the presence of 0.6 ml of NCS tissue solubilizer (Amersham).

Row | SMILES | DNA cleavage (% DNA fragmentation)
1 | COC(=O)C1=C(C(=O)OC)C[C@H]2[C@@H](C1)[C@@H](O)C1=C(C3C4=C(C1c1ccccc13)[C@@H](O)[C@H]1CC(C(=O)OC)=C(C(=O)OC)C[C@H]1[C@H]4O)[C@H]2O [TT12, (4aS*,5S*,7R*,12S*,14R*,7aR*,11aS*,14aR*)-Tetramethyl 1,4,4a,5,6,7,7a,8,11,11a,12,13,14,14a-tetradecahydro-5,7,12,14-tetrahydroxy-6,13-[1′,2′]benzenopentacene-2,3,9,10-tetracarboxylate] | 4-6%
2 | COC(=O)C1=C(C(=O)OC)C[C@H]2C(=O)C3=C(C(=O)[C@H]2C1)C1C2=C(C(=O)[C@H]4CC(C(=O)OC)=C(C(=O)OC)C[C@H]4C2=O)C3c2ccccc21 [TT4, (4aS*,7aR*,11aS*,14aR*)-Tetramethyl 1,4,4a,5,6,7,7a,8,11,11a,12,13,14,14a-tetradecahydro-5,7,12,14-tetraoxo-6,13-[1′,2′]benzenopentacene-2,3,9,10-tetracarboxylate] | 4-6%
